The source of these data is PubChem BioAssay AID488969 (Vanderbilt High Throughput Screening Facility, 2010).

Over roughly 110,000 compounds, “z-score” has its median near -0.1; the highest 2% begin near 2. The list shows a part of the results. Activity calls are given as the source filed them.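 How the source made its calls: active means z-score in the third read window above 3 or below -3; inactive means the rest.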

In the assay the target is Metabotropic glutamate receptor 8 (Rattus norvegicus) (UniProt P70579). Description: mGluR8 Gi/Go-coupled signaling modulation – cell-based, rat, thallium flux, HTS, primary screen (AID 488969). To be noted: HEK293 rat mGluR8, GIRK (G protein-gated inwardly rectifying potassium channel) thallium flux, FluoZin2; at 10 µM; stronger effect = higher value; submaximal glutamate (EC20) added with thallium.
Chain of UniProt P70579 (P70579 whole entry, looked up): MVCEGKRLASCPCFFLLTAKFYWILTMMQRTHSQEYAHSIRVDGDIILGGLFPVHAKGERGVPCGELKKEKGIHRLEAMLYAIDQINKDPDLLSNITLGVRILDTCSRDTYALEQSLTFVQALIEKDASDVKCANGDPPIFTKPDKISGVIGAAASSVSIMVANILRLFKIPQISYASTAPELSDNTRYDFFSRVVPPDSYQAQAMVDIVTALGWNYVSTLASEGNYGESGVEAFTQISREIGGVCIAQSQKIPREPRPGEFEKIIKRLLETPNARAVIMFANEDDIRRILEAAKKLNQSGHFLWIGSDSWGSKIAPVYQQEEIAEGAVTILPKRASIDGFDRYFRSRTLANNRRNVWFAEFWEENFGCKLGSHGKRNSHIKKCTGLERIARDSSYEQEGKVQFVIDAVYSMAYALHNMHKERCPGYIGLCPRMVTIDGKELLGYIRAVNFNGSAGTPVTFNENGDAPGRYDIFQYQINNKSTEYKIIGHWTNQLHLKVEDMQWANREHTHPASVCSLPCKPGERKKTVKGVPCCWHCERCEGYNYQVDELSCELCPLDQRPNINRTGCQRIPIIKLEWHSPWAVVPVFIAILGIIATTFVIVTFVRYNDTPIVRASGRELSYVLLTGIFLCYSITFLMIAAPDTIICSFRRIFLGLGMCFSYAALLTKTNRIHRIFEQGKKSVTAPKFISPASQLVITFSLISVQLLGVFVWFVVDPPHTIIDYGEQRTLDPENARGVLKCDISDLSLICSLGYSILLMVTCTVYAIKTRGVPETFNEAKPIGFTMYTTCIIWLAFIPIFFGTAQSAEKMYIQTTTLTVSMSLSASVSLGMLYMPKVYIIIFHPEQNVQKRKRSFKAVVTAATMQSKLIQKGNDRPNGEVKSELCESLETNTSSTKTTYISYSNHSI
`Cc1cc2oc(C(=O)Nc3ccc(S(=O)(=O)Nc4nccs4)cc3)cc(=O)c2cc1Cl` came in with a z-score of 0.715. In turn, `Cc1ccc2nc(-c3ccccc3Cl)cc(C(=O)Nc3cc(C)on3)c2c1` yielded a z-score of -0.595. Then `Cc1ccccc1Cn1c(CN2CCc3ccccc3C2)nc2c1c(=O)n(C)c(=O)n2C`, with -0.399. Then `C#CCN1C(=O)S/C(=C/c2cc(C)n(CC)c2C)C1=O`, with -0.153.

As to `COC(=O)C1=C(C)N(CCc2ccc(OC)c(OC)c2)C(=O)/C1=C\c1ccc(O)cc1`, the z-score was -0.422. Compound `COc1ccc(-n2c(SCC(=O)NCC3CCCO3)nc3n[nH]c(C)c3c2=N)cc1` (stereo not given) yielded a z-score of -0.605. For `CCOc1cc(/C=N/NC(=O)c2cccc([N+](=O)[O-])c2)ccc1OS(=O)(=O)c1ccccc1` the value was -0.485; for `CCN1CCN(C(=O)/C=C\C(=O)O)CC1`, -0.116. On to `CC(C)c1nc(=S)c2ccccc2[nH]1`, for which the z-score was active: 13.7. Compound `COc1ccccc1CNCC(O)(c1ccc(Cl)cc1)c1ccc(Cl)cc1` came in with a z-score of 0.23. As to `CCOC(=O)c1ccc(NC(=O)CSc2nnc(CCc3ccc(C)o3)n2-c2ccccc2)cc1`, the z-score is -0.0939. In turn, `CCOc1ccc(C(=O)COC(C)=O)cc1` returned a z-score of -0.0449.

`COc1ccc(CSc2cccc3cccnc23)cc1[N+](=O)[O-]`: the z-score stood at 0.224. With `COc1ccccc1NC(=O)CSc1nc(C)c2c(c1C#N)CCCC2`, the z-score is 0.0836. Then `CCC(=O)N1CCN(c2ccc(OC)cc2[N+](=O)[O-])CC1`, with 0.0077. For `O=C(O)C1CC=CCC1C(=O)N1CCN(c2nc(-c3ccccc3)c3ccccc3n2)CC1` (stereo not given) the value was 0.326; for `Cc1nn(C)c(C)c1/C=N/NC(=O)CCn1nc(C)c([N+](=O)[O-])c1C`, 0.0312; for `Cn1cc(/C=C2/SC(=O)N(CC(=O)Nc3ccc4c(c3)OCO4)C2=O)c2ccccc21`, -0.132. Turning to `C=CCNC(=O)CN1CCC(n2c(C)nc3cc(C(F)(F)F)ccc32)CC1`, the z-score is -0.171. For `COc1ccc(NC(=O)C(c2ccc(C)cc2)N(C)C(=O)CNC(C)=O)cc1` (stereo not given) the value was -0.116; for `Nc1cc(N)nc(SCc2ccccc2)n1`, 0.489; for `CCOC(=O)CN1CC23C=CC(O2)C(C(=O)NCc2ccc(C)cc2)C3C1=O` (stereo not given), 0.904.

As to `Cc1ccc(S(=O)(=O)NCC(=O)OC2CCOC2=O)cc1` (stereo not given), the z-score was -0.196. Then `CCn1c(SCC(=O)n2nc(C)cc2C)nnc1-c1ccc2c(c1)OCO2`, with -0.328; and `CCN(CC)S(=O)(=O)c1ccc(-c2nnc(SCc3nnc(-c4ccc(C)cc4)o3)n2CC)cc1`, with -0.562; and `CCCc1nc2c(C)ccc(C)c2c(N)c1CC`, with 0.306. Then `CCOC(=O)Cn1c(CN(C)Cc2ccccc2)nc2c1c(=O)n(C)c(=O)n2C`, with -0.113; and `CC(C)CCOc1cccc(OCC(=O)NC2CCS(=O)(=O)C2)c1` (stereo not given), with -0.616; and `CC(=O)N1CCN(CC(O)COc2ccc(OCc3ccccc3)cc2)CC1` (stereo not given), with 0.0259. As for `O=[N+]([O-])c1nn(-c2ccc(Cl)cc2)n(O)c1=NCc1cccnc1`, the z-score is -0.181. For the compound `CC(C)(C)NC(=O)c1cc(C(C)(C)C)c(O)c(C(C)(C)C)c1`, the z-score is -1.49.

`Cc1ccc(CNC(=O)/C=C/c2ccc(S(=O)(=O)NCc3ccco3)cc2)cc1`: the z-score is -0.281.

Consider `O=C(Nc1ccc(S(=O)(=O)N2CCCCC2)cc1)c1ccccc1Cl`, for which the z-score is -0.396. Take `COc1ccc(C(C(=O)NC2CCCC2)N(Cc2ccccc2)C(=O)c2nsc(Cl)c2Cl)cc1` (stereo not given): the z-score is -0.259. Then `CC(=O)c1ccc(NC(=O)CSc2ccc(-c3ccc4c(c3)OCO4)nn2)cc1`, with -0.125. Then `COc1ccc(NC(=O)C23CC4CC(C2)CC(n2cnc(Br)n2)(C4)C3)cc1Cl`, with -0.254. For `Cc1ccc(S(=O)(=O)CC(=O)N(C)C)cc1` the value was 0.306; for `COc1ccc2nc(NC(=O)c3ccc4ncsc4c3)sc2c1`, -0.549; for `Cc1ccc(NS(=O)(=O)c2cccc(C(=O)O)c2)c(C)c1`, -0.193. The compound `CC(NC(=O)CSc1n[nH]c(=O)n1C1CC1)C12CC3CC(CC(C3)C1)C2` (stereo not given) came in with a z-score of 0.17.

Take `NS(=O)(=O)c1ccc(Cc2ncc(C(F)(F)F)cc2Cl)s1`: the z-score amounted to 1.4. For the compound `COc1ccc(-c2nc(N3CCC(C)CC3)[nH]c(=O)c2C#N)cc1`, the z-score was -0.122. For `COC(=O)/C=C1\S/C(=N/NC(=O)c2ccccc2)NC1=O` the value was 0.166; for `O=C(Nc1cc2c(cc1Br)OCCO2)c1cccs1`, -0.145. Then `O=Cc1c(C(=O)O)n(CC(=O)O)c2ccccc12`, with -0.3; and `CC1CCCCC12NC(=O)N(CC(=O)Nc1ccc(N3CCOCC3)cc1)C2=O` (stereo not given), with 0.195. As for `Clc1cccc(CN2CCCCCCC2)c1Cl`, the z-score is -0.146. Then `NC(=O)c1cccc(S(=O)(=O)N2CC(c3ccccc3)CC2=O)c1` (stereo not given), with -0.131; and `Cc1ccc(CSc2nnc(-c3ccncc3)n2C)cc1`, with -0.0782. Then `COc1ccc(/C=N/n2c(SC)nnc2-c2ccccc2)c(OC)c1OC`, with -1.34; and `Cc1nc2ncnn2c(C)c1Cc1ccc(Cl)cc1`, with 0.288; and `Cn1c(=O)n(C)c2cc([N+](=O)[O-])c(N3CCN(C(=O)c4ccccc4)CC3)cc21`, with -0.941. Then `CC1Oc2ccccc2OC1(O)c1ccc2ccccc2n1` (stereo not given), with -0.351; and `Cc1c(/C(O)=C2/C(=O)C(=O)N(CCN3CCOCC3)C2c2cccnc2)cnn1-c1ccccc1` (stereo not given), with -0.0944.

`CN(C)c1ccnc(NCc2ccccc2)c1C#N`: the z-score was -0.278. For `COc1ccc(/C=C2/SC(=O)N(NS(=O)(=O)c3ccccc3)C2=S)cc1OC` the value was 0.0153. Compound `O=C(Nc1ccccc1-c1nnc(SCc2ccc(Cl)cc2)o1)c1ccccc1` yielded a z-score of -0.0734. Then `O=C(Nc1cccc([N+](=O)[O-])c1)c1ccc2c(c1)OCCO2`, with -0.11; and `COc1cccc(-c2ccc(-c3noc(-c4ccccc4F)n3)c(OC)n2)c1`, with 0.0189; and `O=C(NCCO)C1(c2ccccc2)CCCC1`, with 0.764. `CCCC(C)NS(=O)(=O)c1ccccc1` (stereo not given) yielded a z-score of -0.232.

`CCCc1nc(SCc2ccccn2)c2c(=O)n(C)c(=O)n(C)c2n1`: the z-score was -2.21. For `CC(NC(=O)c1cccc(C(F)(F)F)c1)C1CCCO1` (stereo not given) the value was 0.45; for `CN(CCOCCOc1ccc2ccccc2c1)Cc1ccccc1`, 1.96.

`COc1ccc(NC(=O)Cn2nc(Cc3cccnc3)c3ccccc3c2=O)cc1OC` returned a z-score of -1.21. Turning to `O=C(O)c1oc2ccccc2c1-n1cccc1`, the z-score was -1.47.

For the compound `COC(=O)c1noc(-c2ccc(C)cc2)n1`, the z-score is -1.31.

Regarding `CC1CCC(N2CC(=O)N(Cc3ccc4c(c3)OCO4)C(c3ccc(F)cc3)C2=O)CC1` (stereo not given), the z-score came to 0.0939.

As to `CCCCOc1cccc(C(=O)NC(=S)Nc2cccc(C(F)(F)F)c2)c1`, the z-score worked out at 1.84. Then `COc1ccc(/C=C/C(=O)NCc2c(C)nn(C)c2C)cc1COc1ccc(Br)cc1`, with -0.131; and `COc1ccc(C(=O)NCc2ccc3c(c2)OCO3)cc1S(=O)(=O)NCc1ccc(Cl)cc1`, with 0.0295; and `CN1CCN(C(=S)c2ccc(Br)cc2)CC1`, with -0.156. For `O=C(CSc1nc2ccc(NC(=O)CSc3nnnn3Cc3ccccc3)cc2s1)Nc1ccccc1` the value was -1.26. Then `CC(C)CC(NC(=O)COc1ccccc1)C(=O)O` (stereo not given), with -0.0932. The compound `O=C(CCCCn1c(=O)c2ccccc2n(CC(=O)Nc2ccccc2)c1=O)NCc1ccco1` registered a z-score of -0.216.

`CO/C([O-])=N/c1c[n+](-c2ccc(C)cc2)no1` yielded a z-score of -0.0197. On to `CC1CCc2cc(F)ccc2N1C(=O)c1ccncc1` (stereo not given), for which the z-score is -0.15. Then `O=C(O)c1nn(-c2ccccc2)ccc1=O`, with -0.459. Take `CCCCC(=O)Nc1nc(C)c(-c2csc(Nc3cc(Cl)ccc3OC)n2)s1`: the z-score was -0.0989. Then `CC1CCCN(Cc2nc3c(c(=O)n(C)c(=O)n3C)n2CCCc2ccccc2)C1` (stereo not given), with -2.08.

Turning to `CCCCOC(=O)c1ccc(NC(=O)C(=O)NCc2ccncc2)cc1`, the z-score turned out to be 0.0391. Then `O=C(Nc1ccccn1)c1cccnc1`, with 0.383; and `CC1(C)C(C=C(Cl)Cl)C1C(=O)N1CCN(c2ccccc2)CC1` (stereo not given), with -0.224; and `O=C(COc1ccccc1)N(CCc1ccccc1)c1nc(-c2ccc(F)cc2)cs1`, with 0.0115.

`CCOc1ccc(NC(=O)C2CC=CCC2C(=O)O)cc1` (stereo not given) displayed a z-score of 0.174. For `COc1cc(C(C)=O)ccc1Oc1ncnc2c1cnn2-c1ccc(F)cc1` the value was -0.132. On to `CSc1cccc(NC(C)=O)c1`, for which the z-score is -0.179. As to `O=S(=O)(CCSc1nc2ccccc2o1)c1nc2ccccc2s1`, the z-score was -1.13. For `CCOC(=O)CNS(=O)(=O)c1c(C)noc1C` the value was -0.188; for `O=C1CCCN1c1ccc(Br)cc1`, -0.00112.

As for `O=C(CCNc1ccc(F)cc1)c1cccc([N+](=O)[O-])c1`, the z-score came out at 0.0284. Take `CC(=O)Nc1cccc(-c2nnc(SCC(=O)n3c4c(c5ccccc53)CCCC4)n2C)c1`: the z-score is -0.889.

Turning to `O=C1CC(c2ccccc2)n2nc(NC(=O)c3cccs3)nc2N1` (stereo not given), the z-score was 0.0259. For `O=C(c1ccc(NS(=O)(=O)c2ccccc2)cc1)N1CCN(Cc2ccc3c(c2)OCO3)CC1` the value was 0.0447; for `COC(=O)NCC(c1cccnc1)N1CCOCC1` (stereo not given), -0.0687; for `CN(C)S(=O)(=O)Oc1ccsc1C(=O)Nc1ccc(Cl)cc1`, -0.79. For the compound `CCC1(C)N=c2c(c(=O)n(C)c(=O)n2C)=NO1` (stereo not given), the z-score was -0.0703.

Consider `CC(C)(C)SCCNC(=O)c1ccc(Cl)c(S(=O)(=O)N2CCOCC2)c1`, for which the z-score is 0.258. For `O=C(CN1CCN(c2ncccn2)CC1)NCCC1=CCCCC1` the value was 0.402; for `Cc1nn(-c2ccccc2)c(C)c1C(=O)OCC(=O)Nc1ccc2c(c1)OCO2`, -0.464; for `Cc1ccc(CCN2CC(C(=O)NCCCOC(C)C)CC2=O)cc1` (stereo not given), -0.0457. Turning to `COc1ccc(-c2nc(-n3c(C)c(C(C)=O)c(C(C)=O)c3C)sc2C)cc1OC`, the z-score was -0.504. Then `O=C(NNC1=NCCC1)c1cccc(Br)c1`, with 0.433; and `Cc1noc(C)c1S(=O)(=O)N1CCC(C(=O)N2CCN(C3CCCC3)CC2)CC1`, with -0.239.

Turning to `COc1ccc(/C(O)=C2/C(=O)C(=O)N(CCCN(C)C)C2c2cccc(Cl)c2)cc1OC` (stereo not given), the z-score is 0.0765. For `COc1cc2c(cc1NC(=O)C(C)OC(=O)/C=C/c1ccc(OC(F)F)cc1)oc1ccccc12` (stereo not given) the value was -0.0559; for `O=C(COC(=O)Cc1ccsc1)Nc1ccc(S(=O)(=O)N2CCOCC2)cc1`, 0.284; for `CNC(=S)N1CCN(C(=O)c2ccco2)CC1`, 2.05.

For `Cc1nn(C)c(C(=O)N/N=C/c2ccccc2)c1[N+](=O)[O-]`, the z-score was -0.216. Consider `Cc1ccccc1NC(=S)NCC(c1cccnc1)N1CCOCC1` (stereo not given), for which the z-score is -0.0608.
